Data on 25 compounds can be found in article PMC4336329 (PLoS ONE, 2015).

Hit rate of the full screen: of about 310,000 compounds, about 14,000 (4.5%) showed an effect of 50% or more. The effect is printed as a negative number. The list shows a part of the results.
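Further: peak tail current of the secondary pulse compared with the same well before compound.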

This experiment deals with human ether-à-go-go-related gene (hERG) potassium channel (human, UniProt Q12809). Description: primary screen, population patch clamp on CHO cells stably expressing hERG.
Sequence of human ether-à-go-go-related gene (hERG) potassium channel (Q12809 whole entry, looked up): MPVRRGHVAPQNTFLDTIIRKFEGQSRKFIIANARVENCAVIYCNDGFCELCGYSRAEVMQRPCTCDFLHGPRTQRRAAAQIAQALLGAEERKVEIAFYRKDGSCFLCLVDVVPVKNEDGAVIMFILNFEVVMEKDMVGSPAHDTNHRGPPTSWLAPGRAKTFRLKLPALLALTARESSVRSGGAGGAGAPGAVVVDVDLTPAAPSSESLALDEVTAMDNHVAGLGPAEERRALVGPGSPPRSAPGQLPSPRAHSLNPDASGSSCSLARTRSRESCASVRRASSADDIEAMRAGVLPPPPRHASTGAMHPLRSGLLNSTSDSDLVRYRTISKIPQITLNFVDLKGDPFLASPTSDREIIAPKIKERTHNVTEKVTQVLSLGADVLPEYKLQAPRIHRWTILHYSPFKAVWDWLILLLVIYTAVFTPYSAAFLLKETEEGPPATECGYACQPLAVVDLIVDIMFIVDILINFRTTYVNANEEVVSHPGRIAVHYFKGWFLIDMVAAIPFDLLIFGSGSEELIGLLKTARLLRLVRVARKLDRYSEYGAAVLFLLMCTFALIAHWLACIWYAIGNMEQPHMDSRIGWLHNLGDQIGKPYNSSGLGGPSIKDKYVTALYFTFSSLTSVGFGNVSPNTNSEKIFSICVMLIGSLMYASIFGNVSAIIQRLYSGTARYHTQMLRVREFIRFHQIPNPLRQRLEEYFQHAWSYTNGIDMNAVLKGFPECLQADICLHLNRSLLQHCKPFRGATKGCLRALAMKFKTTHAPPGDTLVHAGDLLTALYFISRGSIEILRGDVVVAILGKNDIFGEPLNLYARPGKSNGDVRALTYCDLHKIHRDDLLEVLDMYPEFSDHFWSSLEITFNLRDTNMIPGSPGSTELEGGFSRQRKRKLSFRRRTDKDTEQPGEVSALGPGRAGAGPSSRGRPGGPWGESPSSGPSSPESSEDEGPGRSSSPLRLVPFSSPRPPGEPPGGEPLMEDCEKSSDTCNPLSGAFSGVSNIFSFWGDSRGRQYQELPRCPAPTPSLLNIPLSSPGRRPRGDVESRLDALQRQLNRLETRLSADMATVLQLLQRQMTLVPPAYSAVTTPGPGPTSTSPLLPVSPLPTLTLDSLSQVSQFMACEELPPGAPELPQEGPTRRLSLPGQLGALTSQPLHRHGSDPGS
Turning to `Cc1ccccc1CN(c1ccc(C(=O)N2CCc3ccccc3C2)cc1)S(C)(=O)=O`, the “hERG current change (%, negative = inhibition) at 10uM” value is -20.6%.
`CCOC(=O)[C@H]1[C@H]2COc3ccc(OC)cc3[C@@H]2N2C(=O)c3cc(OC)ccc3NC(=O)[C@@]12C`: the “hERG current change (%, negative = inhibition) at 10uM” value is on record as -21.1%.
In the case of `CN(C(=O)COc1ccc([N+](=O)[O-])cc1)C1CCS(=O)(=O)C1` (stereo not shown), the “hERG current change (%, negative = inhibition) at 10uM” value is 1.6%.
Turning to `COCCCn1c(=S)[nH]c(C)c(C)c1=O`, the “hERG current change (%, negative = inhibition) at 10uM” value is given as 17.2%.
Take `Cn1c(SCC(=O)Nc2ccc(N3CCOCC3)cc2)nnc1-c1ccccc1F`: the “hERG current change (%, negative = inhibition) at 10uM” value amounted to 1.75%.
Take `O=C(N/N=C/c1cccnc1)/C(=C\c1cccs1)NC(=O)c1ccccc1`: the “hERG current change (%, negative = inhibition) at 10uM” value is given as -10.9%.
Consider `CC(C)c1ccc(C2NC(=O)c3ccccc3O2)cc1` (stereo not shown), for which the “hERG current change (%, negative = inhibition) at 10uM” value worked out at 20.7%.
On to `O=C(NN=C1CCCC1)c1ccccc1[N+](=O)[O-]`, for which the “hERG current change (%, negative = inhibition) at 10uM” value was 18.6%.
Take `N#Cc1ccsc1NC(=O)CCN1CCN(C(c2ccccc2)c2ccccc2)CC1`: the “hERG current change (%, negative = inhibition) at 10uM” value worked out at 3.65%.
For the compound `Cc1ccc2cc(C#N)c(NCCNC(=S)NCCCN(C)C)nc2c1C`, the “hERG current change (%, negative = inhibition) at 10uM” value was -0.554%.
For `Cc1cccc(C)c1OCc1n[nH]c(=S)n1-c1ccccc1`, the “hERG current change (%, negative = inhibition) at 10uM” value worked out at 18.2%.
For `COc1ccc(-n2c(SCC(=O)N3CCC(C(=O)O)CC3)nc3ccccc3c2=O)cc1OC`, the “hERG current change (%, negative = inhibition) at 10uM” value stood at 19.5%.
For `COc1cccc(Oc2ccc(N/C=C/C(=O)C(C)(C)C)cc2)c1`, the “hERG current change (%, negative = inhibition) at 10uM” value is -1.27%.
Regarding `O=C(CN1CCCCC1)NCCNC(=O)CN1CCCCC1`, the “hERG current change (%, negative = inhibition) at 10uM” value was 7.24%.
Consider `CCc1ccccc1NC(=S)N(Cc1ccco1)C(C)c1cccs1` (stereo not shown), for which the “hERG current change (%, negative = inhibition) at 10uM” value worked out at 7.73%.
In the case of `O=C(NNc1ccc(F)cc1F)C1CCC1`, the “hERG current change (%, negative = inhibition) at 10uM” value is given as -15%.
As to `O=C(NNC1=NS(=O)(=O)c2ccccc21)c1ccccc1`, the “hERG current change (%, negative = inhibition) at 10uM” value is -12.1%.
As to `CCCc1nn(C)c(C(=O)Nc2cccc(CC)c2)c1Cl`, the “hERG current change (%, negative = inhibition) at 10uM” value is given as -2.43%.
In the case of `CCCCn1c(SCC(=O)Nc2oc(C)c3c(C)n[nH]c(=O)c23)nc2cc(S(N)(=O)=O)ccc21`, the “hERG current change (%, negative = inhibition) at 10uM” value is -10.2%.
`Cc1cc(Nc2ccc(F)c(Cl)c2)n2ncnc2n1`: the “hERG current change (%, negative = inhibition) at 10uM” value is on record as 2.99%.
Regarding `COc1ccccc1CNC(=O)c1cnc2sccn2c1=O`, the “hERG current change (%, negative = inhibition) at 10uM” value came to 4.29%.
`COCCSc1ccccc1C(=O)N1CCOCC1`: the “hERG current change (%, negative = inhibition) at 10uM” value is reported as 4.53%.
Take `Cn1c(=O)cc(SCC(=O)N2CCCC2)c2ccc(Cl)cc21`: the “hERG current change (%, negative = inhibition) at 10uM” value is -12.7%.
On to `COc1ccc(-c2csc3nc(C(C)(C)C)oc(=O)c23)cc1OC`, for which the “hERG current change (%, negative = inhibition) at 10uM” value is listed as 7.43%.
For the compound `CCOC(=O)C1=C(C)NC(c2cccs2)C(=O)N1` (stereo not shown), the “hERG current change (%, negative = inhibition) at 10uM” value is listed as 10.5%.
